In publication PMC5517149:
Results are given in words; binding and its absence hold for the method and conditions named. Binding seen in cells or lysates may run through a third protein. Some entries that bind do so weakly or less than the wild type. For part of these data: Sequences can lack the tags named with a protein. One block for each molecule: values may come before it.

Sequences of proteins named here, by UniProt entry; tags and fusion partners are left off. A change or cut given only in a name is not applied to a line headed by its entry. A line that says so, or that is headed by a name, gives the form on record, which may keep a tag or linker.
UniProt Q16799: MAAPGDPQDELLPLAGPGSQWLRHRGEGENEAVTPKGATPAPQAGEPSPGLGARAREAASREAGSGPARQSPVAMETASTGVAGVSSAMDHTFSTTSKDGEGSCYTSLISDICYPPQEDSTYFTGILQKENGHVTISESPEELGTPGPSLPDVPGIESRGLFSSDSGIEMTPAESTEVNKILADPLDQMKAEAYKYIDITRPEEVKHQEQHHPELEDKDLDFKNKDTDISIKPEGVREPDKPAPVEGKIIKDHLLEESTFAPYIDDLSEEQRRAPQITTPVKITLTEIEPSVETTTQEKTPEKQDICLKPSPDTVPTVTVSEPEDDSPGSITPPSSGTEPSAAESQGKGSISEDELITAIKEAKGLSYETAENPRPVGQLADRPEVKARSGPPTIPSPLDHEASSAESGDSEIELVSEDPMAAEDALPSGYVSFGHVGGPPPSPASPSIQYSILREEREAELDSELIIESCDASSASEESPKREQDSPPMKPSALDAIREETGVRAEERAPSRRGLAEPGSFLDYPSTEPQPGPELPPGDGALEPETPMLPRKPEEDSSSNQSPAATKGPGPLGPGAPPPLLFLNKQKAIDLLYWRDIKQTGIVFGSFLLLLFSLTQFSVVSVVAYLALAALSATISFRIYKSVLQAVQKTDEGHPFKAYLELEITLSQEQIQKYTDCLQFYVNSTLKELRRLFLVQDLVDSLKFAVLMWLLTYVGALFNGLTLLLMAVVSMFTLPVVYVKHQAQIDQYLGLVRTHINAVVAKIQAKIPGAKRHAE
RTN1S (co-overexpressed in HEK293T) (Q16799-3, form named): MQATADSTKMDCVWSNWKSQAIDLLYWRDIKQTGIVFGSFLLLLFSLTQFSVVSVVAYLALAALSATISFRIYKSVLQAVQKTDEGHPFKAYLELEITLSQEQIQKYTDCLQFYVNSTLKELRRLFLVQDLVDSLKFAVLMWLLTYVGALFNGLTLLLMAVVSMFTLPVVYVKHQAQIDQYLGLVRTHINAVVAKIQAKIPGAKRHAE
UniProt Q9NQC3: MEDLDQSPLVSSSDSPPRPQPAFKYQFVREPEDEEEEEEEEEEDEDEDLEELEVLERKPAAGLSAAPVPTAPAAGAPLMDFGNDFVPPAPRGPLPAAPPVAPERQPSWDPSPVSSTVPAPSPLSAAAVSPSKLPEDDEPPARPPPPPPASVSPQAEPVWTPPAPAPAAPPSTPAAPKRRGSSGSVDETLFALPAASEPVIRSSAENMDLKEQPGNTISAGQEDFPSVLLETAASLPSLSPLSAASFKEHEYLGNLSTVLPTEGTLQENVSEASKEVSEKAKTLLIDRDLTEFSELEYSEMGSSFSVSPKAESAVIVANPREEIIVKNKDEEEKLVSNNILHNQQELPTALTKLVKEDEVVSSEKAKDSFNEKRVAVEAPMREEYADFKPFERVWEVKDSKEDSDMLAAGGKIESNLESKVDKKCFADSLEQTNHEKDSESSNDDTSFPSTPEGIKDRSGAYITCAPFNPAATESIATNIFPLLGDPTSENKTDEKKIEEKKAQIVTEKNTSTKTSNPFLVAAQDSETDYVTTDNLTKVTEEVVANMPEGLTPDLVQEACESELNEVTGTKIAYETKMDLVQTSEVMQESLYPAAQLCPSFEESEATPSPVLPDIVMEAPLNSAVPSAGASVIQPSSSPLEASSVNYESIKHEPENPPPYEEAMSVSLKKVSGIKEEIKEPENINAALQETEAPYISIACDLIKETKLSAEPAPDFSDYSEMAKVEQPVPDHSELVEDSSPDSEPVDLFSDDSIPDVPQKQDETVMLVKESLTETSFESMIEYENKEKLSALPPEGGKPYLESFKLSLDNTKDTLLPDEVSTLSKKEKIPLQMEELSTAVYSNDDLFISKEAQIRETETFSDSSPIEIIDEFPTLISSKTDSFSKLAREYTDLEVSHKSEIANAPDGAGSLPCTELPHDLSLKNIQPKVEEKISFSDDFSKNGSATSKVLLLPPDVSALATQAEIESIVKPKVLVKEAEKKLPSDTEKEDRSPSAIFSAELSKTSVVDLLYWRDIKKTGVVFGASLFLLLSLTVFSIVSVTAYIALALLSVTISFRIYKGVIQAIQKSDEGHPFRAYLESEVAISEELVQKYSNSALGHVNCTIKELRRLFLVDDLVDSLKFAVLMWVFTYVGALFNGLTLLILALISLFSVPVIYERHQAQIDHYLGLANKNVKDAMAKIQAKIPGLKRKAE
RTN4S (co-overexpressed in HEK293T) (Q9NQC3-3, form named): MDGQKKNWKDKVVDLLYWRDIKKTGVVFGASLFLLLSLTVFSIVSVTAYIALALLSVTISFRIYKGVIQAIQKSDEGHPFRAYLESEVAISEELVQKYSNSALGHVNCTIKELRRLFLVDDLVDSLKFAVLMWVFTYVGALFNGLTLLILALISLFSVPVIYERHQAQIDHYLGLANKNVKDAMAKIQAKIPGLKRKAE
UniProt O95197: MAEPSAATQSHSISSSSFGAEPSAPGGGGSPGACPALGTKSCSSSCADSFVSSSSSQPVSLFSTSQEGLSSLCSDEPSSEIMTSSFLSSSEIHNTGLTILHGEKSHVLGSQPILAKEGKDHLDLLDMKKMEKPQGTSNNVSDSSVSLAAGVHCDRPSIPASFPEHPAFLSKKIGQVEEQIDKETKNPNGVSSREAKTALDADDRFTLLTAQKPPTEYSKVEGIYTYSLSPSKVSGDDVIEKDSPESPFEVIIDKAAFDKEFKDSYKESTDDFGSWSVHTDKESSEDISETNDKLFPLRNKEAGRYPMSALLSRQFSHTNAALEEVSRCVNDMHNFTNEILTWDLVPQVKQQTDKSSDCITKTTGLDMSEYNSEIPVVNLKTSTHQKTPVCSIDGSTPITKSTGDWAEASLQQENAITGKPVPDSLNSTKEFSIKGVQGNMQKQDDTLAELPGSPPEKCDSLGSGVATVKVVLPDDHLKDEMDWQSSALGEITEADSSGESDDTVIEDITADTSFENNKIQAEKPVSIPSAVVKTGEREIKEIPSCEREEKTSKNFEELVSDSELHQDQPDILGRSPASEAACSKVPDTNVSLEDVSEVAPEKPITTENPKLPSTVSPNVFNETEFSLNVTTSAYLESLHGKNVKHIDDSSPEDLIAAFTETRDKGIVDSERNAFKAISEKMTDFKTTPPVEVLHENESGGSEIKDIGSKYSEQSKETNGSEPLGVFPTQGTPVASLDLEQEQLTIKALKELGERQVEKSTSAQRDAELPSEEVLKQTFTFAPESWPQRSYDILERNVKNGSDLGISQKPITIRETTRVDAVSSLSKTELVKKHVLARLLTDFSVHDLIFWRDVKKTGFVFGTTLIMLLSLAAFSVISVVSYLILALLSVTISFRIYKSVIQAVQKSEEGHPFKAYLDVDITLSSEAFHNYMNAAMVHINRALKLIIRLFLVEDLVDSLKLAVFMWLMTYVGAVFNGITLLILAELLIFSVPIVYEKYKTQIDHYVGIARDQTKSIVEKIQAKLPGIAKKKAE
RTN3S (co-overexpressed in HEK293T) (O95197-3, form named): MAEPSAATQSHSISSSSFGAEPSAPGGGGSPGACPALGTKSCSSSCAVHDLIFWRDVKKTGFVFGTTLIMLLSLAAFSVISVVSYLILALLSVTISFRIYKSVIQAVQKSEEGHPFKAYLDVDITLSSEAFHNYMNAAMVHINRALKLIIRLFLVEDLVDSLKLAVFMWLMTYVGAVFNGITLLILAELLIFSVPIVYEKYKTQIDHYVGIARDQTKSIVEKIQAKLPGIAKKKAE
UniProt Q9H6L5: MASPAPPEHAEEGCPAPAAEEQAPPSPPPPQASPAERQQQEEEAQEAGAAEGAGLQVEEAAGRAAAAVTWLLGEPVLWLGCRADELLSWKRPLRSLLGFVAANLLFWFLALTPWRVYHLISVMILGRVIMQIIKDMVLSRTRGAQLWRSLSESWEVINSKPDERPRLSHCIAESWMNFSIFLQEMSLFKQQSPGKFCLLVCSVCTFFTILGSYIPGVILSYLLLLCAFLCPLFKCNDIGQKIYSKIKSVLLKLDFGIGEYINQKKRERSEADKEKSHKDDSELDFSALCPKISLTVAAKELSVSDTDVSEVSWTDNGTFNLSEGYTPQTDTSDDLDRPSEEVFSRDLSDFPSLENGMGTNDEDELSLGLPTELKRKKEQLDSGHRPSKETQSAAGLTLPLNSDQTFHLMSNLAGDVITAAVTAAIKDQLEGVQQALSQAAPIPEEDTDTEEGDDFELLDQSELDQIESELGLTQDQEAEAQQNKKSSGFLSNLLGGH
UniProt O95166: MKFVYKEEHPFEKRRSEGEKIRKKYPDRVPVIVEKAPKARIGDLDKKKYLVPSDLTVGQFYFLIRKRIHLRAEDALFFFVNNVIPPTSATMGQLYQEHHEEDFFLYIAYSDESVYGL

Tests used:
[1] = target: FLAG-HA-RTN1L (human) (UniProt Q16799); test: co-IP; anti-HA-agarose IP of FLAG-HA-RTN isoforms from U2OS TRex stable lines (doxycycline 1 µg/ml 24 hr, bafilomycin A1 200 ng/ml 2 hr); 50 mM Tris/HCl pH 8, 120 mM NaCl, 1% NP40; overnight at 4°C; blot for endogenous GABARAP and GABARAP-L1
[2] = target: FLAG-HA-RTN4S (human) (UniProt Q9NQC3); test: as above
[3] = target: FLAG-HA-RTN3S (human) (UniProt O95197); test: as above
[4] = target: FLAG-HA-RTN1S (human) (UniProt Q16799); test: as above
[5] = target: T1, FLAG-HA-RTN2S (human) (UniProt O75298); test: as above
T1 sequence: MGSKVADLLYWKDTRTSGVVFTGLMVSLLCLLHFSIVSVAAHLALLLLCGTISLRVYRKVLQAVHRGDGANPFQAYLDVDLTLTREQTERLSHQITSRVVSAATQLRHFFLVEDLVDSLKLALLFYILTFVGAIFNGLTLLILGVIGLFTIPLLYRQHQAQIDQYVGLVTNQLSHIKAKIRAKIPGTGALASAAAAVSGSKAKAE

[6] = target: T2, FLAG-HA-RTN2L (human) (UniProt O75298); test: as above
T2 sequence: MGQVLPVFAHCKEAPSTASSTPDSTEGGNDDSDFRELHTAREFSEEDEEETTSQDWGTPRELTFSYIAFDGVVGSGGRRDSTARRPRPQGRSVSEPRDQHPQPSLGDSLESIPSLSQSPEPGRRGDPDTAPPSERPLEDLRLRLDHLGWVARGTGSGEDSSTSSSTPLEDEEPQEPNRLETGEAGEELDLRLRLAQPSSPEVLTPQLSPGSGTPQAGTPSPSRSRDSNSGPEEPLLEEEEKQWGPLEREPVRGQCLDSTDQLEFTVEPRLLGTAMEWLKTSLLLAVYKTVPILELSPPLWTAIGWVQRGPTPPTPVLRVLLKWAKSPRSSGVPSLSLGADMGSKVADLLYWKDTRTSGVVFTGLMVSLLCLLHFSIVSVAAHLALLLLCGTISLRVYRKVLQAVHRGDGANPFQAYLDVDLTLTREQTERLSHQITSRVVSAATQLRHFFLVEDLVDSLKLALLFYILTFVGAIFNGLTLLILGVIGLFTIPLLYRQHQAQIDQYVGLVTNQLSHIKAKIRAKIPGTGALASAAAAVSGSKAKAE

[7] = target: FLAG-HA-RTN4L (human) (UniProt Q9NQC3); test: as above
[8] = target: endogenous RTN3 (human (endogenous in A549)) (UniProt O95197); test: co-IP; endogenous proteins; A549 lysate (bafilomycin A1 200 ng/ml 2 hr) with RTN3 antibody overnight at 4°C, then Protein A-Agarose; 50 mM Tris/HCl pH 8, 120 mM NaCl, 1% NP40
[9] = target: RTN4L (co-overexpressed in HEK293T) (human) (UniProt Q9NQC3); test: co-IP; proteins co-overexpressed in HEK293T for 24 hr; IP with anti-HA-agarose (overnight) or GFP-TRAP beads (2 hr) at 4°C; 50 mM HEPES pH 7.5, 150 mM NaCl, 1% Triton X-100, 10% glycerol
[10] = target: T3, RTN2L (co-overexpressed in HEK293T) (human) (UniProt O75298); test: as above
T3 sequence: T2 sequence

[11] = target: RTN1L (co-overexpressed in HEK293T) (human) (UniProt Q16799); test: as above
[12] = target: FAM134B (co-overexpressed in HEK293T) (human) (UniProt Q9H6L5); test: as above

Molecule: RTN1S (co-overexpressed in HEK293T) (from UniProt Q16799-3 1-208)
binding [9]: binds | binding [10]: binds

Molecule: RTN4L (co-overexpressed in HEK293T) (from UniProt Q9NQC3-1 1-1192)
binding [11]: binds | binding [10]: binds

Molecule: RTN4S (co-overexpressed in HEK293T) (from UniProt Q9NQC3-3 1-199)
binding [11]: binds | binding [10]: binds

Continued, values first:

binding [1]: no binding | binding [2]: no binding | binding [3]: no binding | binding [4]: no binding | binding [5]: no binding | binding [6]: no binding | binding [7]: no binding | binding [8]: binds
Molecule: GABARAP (endogenous) (from UniProt O95166 1-117)

binding [9]: binds | binding [10]: binds
Molecule: RTN1L (co-overexpressed in HEK293T) (from UniProt Q16799-1 1-776)

binding [9]: binds | binding [11]: binds | binding [10]: binds
Molecule: RTN3S (co-overexpressed in HEK293T) (from UniProt O95197-3 1-236)

binding [9]: binds | binding [11]: binds
B1: RTN2S (co-overexpressed in HEK293T) (protein, UniProt O75298-3 1-205)
chain: T1 sequence

binding [9]: binds | binding [11]: binds | binding [12]: binds
B2: RTN2L (co-overexpressed in HEK293T) (protein, UniProt O75298-1 1-545)
chain: T2 sequence
